In article PMC6919601, “Identification of Plasmodium dipeptidyl aminopeptidase allosteric inhibitors by high throughput screening” (PLoS ONE, 2019):
Screen size: about 110,000 compounds; about 230 (0.21%) showed an effect of 50% or more. Some of the results follow.

Molecular target: DPAP1 (Plasmodium falciparum, UniProt Q8IIJ9)
Assay: primary screen, percent inhibition; read by cleavage of a fluorogenic dipeptide substrate; higher = more effect of the substance
Set-up: species or system P. falciparum D10 trophozoite lysates; single well
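Note: 30 min substrate incubation versus DMSO and 10 µM JCP410 controls.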

Chain of DPAP1 (Q8IIJ9 whole entry, looked up): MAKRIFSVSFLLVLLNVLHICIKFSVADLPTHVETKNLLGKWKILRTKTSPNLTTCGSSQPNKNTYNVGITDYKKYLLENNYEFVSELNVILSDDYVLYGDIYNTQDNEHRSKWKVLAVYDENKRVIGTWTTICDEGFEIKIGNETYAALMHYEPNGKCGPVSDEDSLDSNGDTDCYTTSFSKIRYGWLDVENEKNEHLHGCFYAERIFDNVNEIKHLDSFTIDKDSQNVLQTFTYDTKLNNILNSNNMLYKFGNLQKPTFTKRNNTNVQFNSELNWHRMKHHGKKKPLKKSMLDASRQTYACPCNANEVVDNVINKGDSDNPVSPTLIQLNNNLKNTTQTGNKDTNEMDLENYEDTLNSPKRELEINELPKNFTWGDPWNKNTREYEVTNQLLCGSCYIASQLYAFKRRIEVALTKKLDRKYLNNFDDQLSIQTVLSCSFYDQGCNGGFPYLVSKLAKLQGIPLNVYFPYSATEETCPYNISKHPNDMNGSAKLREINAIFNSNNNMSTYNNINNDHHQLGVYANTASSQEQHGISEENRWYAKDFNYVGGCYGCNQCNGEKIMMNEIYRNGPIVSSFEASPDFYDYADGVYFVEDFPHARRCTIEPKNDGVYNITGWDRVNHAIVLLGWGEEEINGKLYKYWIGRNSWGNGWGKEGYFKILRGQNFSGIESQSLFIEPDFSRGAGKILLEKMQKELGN

Compared with `CCN(CC)C(=O)CSc1nc(-c2ccccc2)nc2c1Cc1ccccc1O2`, `O=C(Cc1ccc(-c2ccccc2)cc1)NCc1nc(-c2ccccc2)no1` is higher in “% Inhibition @ 10 uM” value: 0.44% for the first, 0.486% for the second.

Going from `COc1ccc2oc(=O)cc(CN3CCN(C(=O)c4ccccc4C)CC3)c2c1` to `COc1ccc2c(Sc3ccccc3)c(C(=O)NCCN3CCN(C)CC3)[nH]c2c1`, the “% Inhibition @ 10 uM” value falls from 3.88% to 1.61%.

Compared with `CCOc1ccccc1NC(=O)c1ccc(C(=O)O)cc1C(=O)O`, `CCCC(=O)Nc1ccc(C(=O)Nc2ccccc2F)cc1` is higher in “% Inhibition @ 10 uM” value: -4.68% for the first, 3.56% for the second.

Compared with `N#CNC(=N)CSc1nc(-c2ccccc2)cc(C(F)(F)F)c1C#N`, `COc1cccc(-c2ccc(C#N)c(SCC(=O)NC3CCCC3)n2)c1` is higher in “% Inhibition @ 10 uM” value: 0.0719% for the first, 5.54% for the second.

First: N#CC1CC(c2ccc(Cl)cc2)=NN1c1ccccc1 (stereo not shown)
Second: Cc1ccc2n1CCN(c1nc(-c3ccc(Cl)cc3)cs1)C2C (stereo not shown)
The “% Inhibition @ 10 uM” value of the first is higher: 6.52% for the first, -4.49% for the second.

First: O=[N+]([O-])c1ccc(N2CCOCC2)nc1
Second: CCOc1cc(/C=C2\C(=N)N3N=C(N4CCOCC4)SC3=NC2=O)ccc1O
The “% Inhibition @ 10 uM” value of the first is higher: 7.98% for the first, -7.18% for the second.

Compared with `COc1ccccc1C(=O)Nc1c2c(nc3c1CCC3)CCCC2`, `Oc1[nH]c2ccccc2c1C1=NCCCCC1` is lower in “% Inhibition @ 10 uM” value: 17.5% for the first, 16.1% for the second.

Compared with `COc1ccc(/C(O)=C/c2nc3ccc(C(=O)N4CCN(C5CCCCC5)CC4)cc3nc2O)cc1`, `Cc1ccc2oc(=O)c3cc(C(=O)N4CCC(N5CCCCC5)CC4)sc3c2c1` is lower in “% Inhibition @ 10 uM” value: 16.6% for the first, -1.54% for the second.

Compared with `Cc1ccc(CNC(=O)CCS(=O)(=O)c2ccc(Br)s2)cc1`, `CCCNC(=O)CN(c1cccc(C(F)(F)F)c1)S(=O)(=O)c1ccc(C)cc1` is lower in “% Inhibition @ 10 uM” value: 2.01% for the first, -9.02% for the second.

Going from `C=CCC(NCc1ccccc1)c1ccco1` (stereo not shown) to `O=C(/C=C/c1ccco1)Nc1cnc2ccccc2c1`, the “% Inhibition @ 10 uM” value falls from -0.546% to -5.03%.

First: Cc1cccc(-c2noc(CN(C(=O)C(C)Oc3ccccc3)C(C)C)n2)c1 (stereo not shown)
Second: Nc1c(C(=O)c2ccccc2)sc2nc(-c3cccnc3)ccc12
The “% Inhibition @ 10 uM” value of the first is higher: -5.26% for the first, -10.4% for the second.

Going from `CCC(C)Oc1ccc(C(=O)Nc2ccc(CN3CCOCC3)cc2)cc1` (stereo not shown) to `CCOc1ccc(NC(=O)C2=C(C)NC(=O)NC2c2ccccc2Cl)cc1` (stereo not shown), the “% Inhibition @ 10 uM” value falls from 4.11% to 2.98%.

First: Cc1ccccc1Cn1c(C)c(CNCc2cccc(Cl)c2)c(C(=O)O)c1C
Second: CSc1ccc(CCNCc2c(C(=O)O)c(C)n(Cc3cccc(Cl)c3)c2C)cc1
The “% Inhibition @ 10 uM” value of the first is lower: -2.14% for the first, 2.8% for the second.

`CC(C)(C)N1CC(COc2ccccc2)OC1=O` (stereo not shown) and `O=C1NC(=O)/C(=C/C=C/c2ccccc2)S1` are the same in “% Inhibition @ 10 uM” value: 0.317% for the first, 0.317% for the second.

Going from `O=C(CNC(=S)N(Cc1ccccc1)Cc1ccccc1F)NCCCN1CCOCC1` to `O=C(Cc1cccc2ccccc12)Nc1cccnc1`, the “% Inhibition @ 10 uM” value falls from -0.519% to -6.39%.

Going from `O=C(NC1(C(F)(F)F)NC(=O)N(Cc2ccco2)C1=O)c1ccccc1F` (stereo not shown) to `CCOc1cccc(/C=C2/NC(=O)N(Cc3ccccc3F)C2=O)c1O`, the “% Inhibition @ 10 uM” value rises from 0.475% to 1.83%.

Compared with `Cc1ccc(C2=NS(=O)(=O)N(C)C(C(=O)N3CCN(C(=O)C(C)(C)C)CC3)=C2)cc1`, `CCN1CCN(C(=O)c2cc3c(s2)-c2ccc(Cl)cc2SC3)CC1` is higher in “% Inhibition @ 10 uM” value: 0.655% for the first, 0.953% for the second.

Compared with `COc1ccccc1C1C(C#N)=C(N)Oc2cc(C)n(Cc3ccc4c(c3)OCO4)c(=O)c21` (stereo not shown), `COc1ccccc1CC(=O)Nc1ccc(CC#N)cc1` is higher in “% Inhibition @ 10 uM” value: 2.31% for the first, 3.01% for the second.

First: CCOC(=O)c1cc(S(=O)(=O)N2CCc3cc(OC)c(OC)cc3C2C)cn1C (stereo not shown)
Second: COc1ccc(OC)c(CNS(=O)(=O)c2cc(-c3onc(C)c3C)ccc2OC)c1
The “% Inhibition @ 10 uM” value of the first is lower: -2.84% for the first, 1.56% for the second.

First: COc1ccccc1C1C2=C(O)CCCC2=Nc2nc3ccccc3n21 (stereo not shown)
Second: CCc1sc(-c2cc3cccc(OC)c3oc2=O)nc1-c1ccccc1
The “% Inhibition @ 10 uM” value of the first is lower: -5.19% for the first, -0.112% for the second.

Compared with `CC1(C)Cc2c(sc3ncn4nc(CO/N=C/c5ccccc5)nc4c23)C(C)(C)N1`, `O=C1OC(c2cncc(Br)c2)=N/C1=C/C=C/c1ccccc1` is lower in “% Inhibition @ 10 uM” value: -2.26% for the first, -3.46% for the second.

First: CSc1cccc(NC(=O)/C(=C/c2ccc(C)o2)NC(=O)c2ccccc2)c1
Second: COc1ccc(NC(=O)c2ccccc2NC(N)=O)cc1
The “% Inhibition @ 10 uM” value of the first is higher: 0.851% for the first, -0.891% for the second.

Going from `Cc1ccc(S(=O)(=O)Nn2cnnc2)cc1` to `O=C(Nc1nccs1)c1cccc(S(=O)(=O)N2CCCCC2)c1`, the “% Inhibition @ 10 uM” value rises from -2.77% to 4.35%.

First: CCCCNC(=O)c1cc([N+](=O)[O-])[nH]n1
Second: CCCn1c(NCc2sccc2C)nc2ccccc21
The “% Inhibition @ 10 uM” value of the first is higher: 3.48% for the first, -3.52% for the second.

Going from `NC(=O)C1CCN(C2CC(=O)N(c3cccc(Cl)c3)C2=O)CC1` (stereo not shown) to `O=C(O)C1CCN(c2nc3ccccc3o2)CC1`, the “% Inhibition @ 10 uM” value falls from 2.08% to -0.256%.

Going from `c1ccc2nc(NCc3ccncc3)ccc2c1` to `CCC(C)c1c(O)nc(SCc2ccccc2)nc1O` (stereo not shown), the “% Inhibition @ 10 uM” value rises from -1.37% to 16.9%.

Going from `Cc1ccc(Cn2c(C)c(CNCCc3cccs3)c(C(=O)O)c2C)cc1` to `CCO/C(O)=C1/C(C)=Nc2nc(SC)nn2C1c1ccc(C(=O)OC)cc1` (stereo not shown), the “% Inhibition @ 10 uM” value rises from -5.49% to 2.97%.

Going from `COc1ccc(C(c2c(O)n(C)c(SC)nc2=O)c2c(O)n(C)c(SC)nc2=O)cc1O` to `COc1ccc(C2C(C#N)=C(N)Oc3[nH]nc(C45CC6CC(CC(C6)C4)C5)c32)c(OC)c1OC` (stereo not shown), the “% Inhibition @ 10 uM” value rises from -4.03% to 6.27%.

Compared with `CC1CCC(N2CCC(O)(c3ccc(Br)cc3)CC2)CC1` (stereo not shown), `CCOC(=O)N1CCN(C2CCCC(C)C2)CC1` (stereo not shown) is higher in “% Inhibition @ 10 uM” value: -5.44% for the first, -3.6% for the second.

First: O=C(CN1C(=O)c2ccccc2S1(=O)=O)Nc1ccc(C2[C@H]3C[C@@H]4C[C@@H](C[C@H]2C4)C3)cc1 (stereo partly shown)
Second: CCOc1ccc(NC(=O)CN(c2ccc(F)cc2)S(=O)(=O)c2ccccc2)cc1
The “% Inhibition @ 10 uM” value of the first is higher: 2.65% for the first, -7.97% for the second.

Compared with `O=c1[nH]c(=S)[nH]c2scc(-c3ccccc3)c12`, `CC1CCN(C(=O)c2cc3ccc4cccnc4c3[nH]2)CC1` is lower in “% Inhibition @ 10 uM” value: 32.7% for the first, 7.61% for the second.

Compared with `CC(=O)OCC12COC(CN3CCCCC3)C(C(C)=CC1C)C2C` (stereo not shown), `O=S(=O)(c1ccc2c(c1)OCCO2)N1CCNCC1` is lower in “% Inhibition @ 10 uM” value: 3.32% for the first, -2.4% for the second.
